# Test system: Male Sprague Dawley rats
# Experiment: Forced Swim Test (FST) (Procedure B)
# Parameters: key: A: Statistically significant mean decrease in immobility compared to vehicle control at 3 mg/kg or less; B: No statistically significant mean decrease in immobility compared to vehicle control at 3 mg/kg or less
# Conditions: second swim test ~24 hours after injection, 3 mg/kg or less, vs vehicle
# Description: Forced Swim Test (FST) (Procedure B). All FST experiments were conducted by Psychogenics Inc, Paramus, N.J. Male Sprague Dawley rats from Envigo (Indianapolis, Ind.) were obtained and housed 3 rats per cage following an IACUC approved protocol. All experiments were carried out at ambient temperatures (20 and 23° C.) under artificial lighting during the light-on part of the light/dark cycle in a Forced Swim chamber constructed of clear acrylic (height=40 cm; diameter=20.3 cm). Only one rat was placed in the swim chamber at a time for each swim test. The water was changed and the chamber cleaned between each animal. All rats were exposed to two swim sessions. The water depth was 16 cm in the first swim session and 30 cm in the second swim session, and the water temperature was maintained at 23±1° C. for all swim sessions. During the FST, animals undergo a 15 min swim session (pre-swim) lasted for 15 minutes, dried with paper towels, and returned to the home cage. […] The second swim test was video recorded for scoring. Body weights were measured on both days. Scoring of the second swim test was performed by trained technicians using a time sampling technique in which the animal in the video recorded test was viewed every 5 seconds and the behavior seen is noted. […]
compound,measurement,value
"COc1ccc2c3c([nH]c2n1)CCN(C)CC3 [Example 1, 2-methoxy-7-methyl-5,6,7,8,9,10-hexahydropyrido[3′,2′:4,5]pyrrolo[2,3-d]azepine]",Decrease in immobilty,A
